In the supplement of paper PMC11417369:
Some of the results follow.

System: PF3D7_0420300 AP2 domain 1 (GST-tagged)
Assay: gcPBM binding intensity (ln(normalized median fluorescence intensity)); higher = stronger DNA binding
Method in brief: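 For binding intensity, the highest Masliner-normalised natural-log median intensity across replicate spots of either probe orientation was taken. Protein bound to the array was stained with Alexa488 anti-GST antibody and scanned at 488 nm. The protein, GST-tagged P. falciparum DNA-binding domains from E. coli at about 25 μg on average, had been applied for 1 h to an Agilent 4 × 180k array of primer-extended double-stranded 36-bp intergenic genomic probes and negative controls.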

Row | Sequence | gcPBM binding intensity (ln)
1 | AAAAAGAATGTGAACACACACATTGAATATAATTTA [CACACA_site1262] | 9.46
2 | AAAAAAAAAACACACACATGCACATCATATTATATA [TGCATGCA_site133] | 9.84
3 | GTATCAAAAGAATACACACACACATACCTATAAATA [CACACA_site7737] | 10.1
4 | AAAGGAAAAAAAGTAGCACACAAATATTTATAATAT [CACACA_site8772] | 9.67
5 | CATACATAAATATAAACATGCATATATTTTTTTTAT [TGCATGCA_site616] | 9.26
6 | ATTTTAATAAAATATGTACACACATACACCCATATA [CACACA_site8326] | 9.52
7 | TGATATCTTAAGAAATGTACAAAGATATAACCATTT [XGTACX_site1913] | 9.11
8 | TAAATAAAAAAAAATACACACATCTATATAAAATAT [CACACA_site3774] | 9.67
9 | GATATTTTTATTTGTTGTACTTAAGATAATAAATGA [XGTACX_site2891] | 9.17
10 | AATATATTAAAAAAGCGTACAAGAATTGGAAAATGG [XGTACX_site6576] | 9.68
11 | AAAAAAAAAAAAATACGTACACAAAAAATTGCAAAG [XGTACX_site5663] | 9.49
12 | ATAAATGTGTTTATTTAACACACAAAAGAAAAAATA [CACACA_site8589] | 9.55
13 | TGTATAACCTGTGTTACACACATTAAAATTTATATA [CACACA_site4449] | 9.24
14 | AATATATATATTAAATGTACATTACATAATTATATA [XGTACX_site3450] | 9.19
15 | TTTTTTTTTTTAGACACATGCATTTTTATAATTTTC [TGCATGCA_site843] | 9.26
16 | TAAATGAAAATATGTACACACTTGAAAACTTTTATG [CACACA_site7388] | 9.44
17 | TGCAACAAAATAAACACACACACACTAGCACAAAAA [CACACA_site5805] | 10
18 | TATATATATTAACTTGTGCGCAAAAAGATATAATTT [GTGCAC_site9672] | 9.1
19 | AATATTTTGATGTGTACACATTAATACAGTTTTACA [CACACA_site5711] | 9.3
20 | AAGAAATAAAAAAAACGTACATATATACATACATAC [XGTACX_site3980] | 9.47
21 | ATATGTATGTATGTCTCAAAATTTCATATTATATTA [CACACA_negctrl_site784] | 9.21
22 | TAGGATATTGAATAATGTACTTTATATATAATATAA [XGTACX_site7828] | 9.08

Row | Sequence | gcPBM binding intensity (ln)
23 | TGGTAATATCGATTCACACATATCAAAATAAAAAAA [CACACA_site4196] | 9.07
24 | TAGGAGAAAAAAAAAAGTACCCACAACTATTATACT [XGTACX_site8195] | 9.46
25 | AACATATTAATGTACACACACCCACGCACAAACAAA [CACACA_site7320] | 9.8
26 | AGTATTATATATATATGTACATAATATACATATATA [XGTACX_site8514] | 9.19
27 | TTATAAGATTTATGTACACACATATACACAGCTCTA [CACACA_site6481] | 9.44
28 | TCCTAATGCTACCACACACACAAAAACAAATAATAA [CACACA_site2610] | 9.89
29 | TGTCATTCCTCTTATTGTACAAAAATATTATAATAT [XGTACX_site1134] | 9.34
30 | TATTAAAATATTTATACACACATAATTTTGATAAAT [CACACA_site4486] | 9.31
31 | GCTATAAATACAGACGCACACATATACATACAGATA [CACACA_site5778] | 9.49
32 | ATATACATAATATATAATATAAATATATATATGGAA [CACACA_negctrl_site906] | 9.21
33 | TGTTATTAGAAAAATGCACACCAAAAAAAAAAAAAA [CACACA_site8802] | 9.23
34 | ACATATTTATATTCTACACACTTATACTATAATACA [CACACA_site7204] | 9.69
35 | TAATTAATTTACATTTTAATTTTATACAAAATTTAT [CACACA_negctrl_site830] | 8.92
36 | GTTATACGCATCAACACACACATACAACGTGGTGTA [CACACA_site1188] | 9.48
37 | ATGGAACTTAAAAATTGTACACATAAAATGGAGAAG [XGTACX_site1823] | 9.34
38 | TCCAATTCTTTATTTTGTACACATTATGTGCATATG [XGTACX_site6290] | 9.24
39 | TTTTCTTGTAGTATAACAAAATATAGTAATATATAT [GTGCAC_negctrl_site609] | 8.97
40 | GTTGTTATATAAAGGAGTACATAATAACACAAATAT [XGTACX_site615] | 9.48
41 | CCATTTGGTATTATATGTACATATAATTTTTTTTTT [XGTACX_site157] | 9.32
42 | ATGAAATATTTATTTGTGCACTTAATTTGTTGGAAA | 9.13
43 | AATCCTTCATATGTAGTGCATATTAACAAAATAAAA [GTGCAC_site9500] | 9.15
44 | AAAAAAAAAAAAAAAACACACATTTATAGTATATAT [CACACA_site1194] | 9.36
